Test results: patent US20260034244A1 (PANOLOS BIOSCIENCE, published 2026)

T1: PLGF (UniProt P49763-2 19-149, limits assumed)
T1 construct: also called placental growth factor
T1 sequence (looked up): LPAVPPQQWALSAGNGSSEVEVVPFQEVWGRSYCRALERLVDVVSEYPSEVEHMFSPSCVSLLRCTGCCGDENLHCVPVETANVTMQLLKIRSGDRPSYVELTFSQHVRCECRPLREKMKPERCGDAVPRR

T2: VEGF-A (UniProt P15692-4 27-191, limits assumed)
T2 construct: also called vascular endothelial growth factor A
T2 sequence (looked up): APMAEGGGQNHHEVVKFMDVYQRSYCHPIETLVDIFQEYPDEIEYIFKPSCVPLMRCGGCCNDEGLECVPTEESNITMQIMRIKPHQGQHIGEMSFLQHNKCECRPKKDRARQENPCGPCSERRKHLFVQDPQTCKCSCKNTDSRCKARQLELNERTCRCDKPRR

T3: VEGF-A (UniProt P15692-4 27-191, limits assumed)
T3 construct: Analyte at 40, 20, 10 nM; also called vascular endothelial growth factor A
T3 sequence (looked up): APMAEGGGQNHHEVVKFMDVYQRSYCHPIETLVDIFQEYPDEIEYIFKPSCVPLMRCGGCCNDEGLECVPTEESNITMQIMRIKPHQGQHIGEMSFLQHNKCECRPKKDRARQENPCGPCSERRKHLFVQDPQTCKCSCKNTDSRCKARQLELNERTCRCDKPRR

T4: PLGF (UniProt P49763-2 19-149, limits assumed)
T4 construct: also called placental growth factor
T4 sequence (looked up): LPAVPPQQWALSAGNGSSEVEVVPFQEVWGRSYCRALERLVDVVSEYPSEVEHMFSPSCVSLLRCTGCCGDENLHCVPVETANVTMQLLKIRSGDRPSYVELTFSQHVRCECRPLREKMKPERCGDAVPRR


Key:
PLGF [1] = molecular target: T1, PLGF; assay: BLI Octet; fold increase vs VEGF-Grab3 (Panolos Bioscience)
VEGF-A [2] = molecular target: T2, VEGF-A; assay: as above
VEGF-A [3] = molecular target: T3, VEGF-A; assay: BLI (Octet), fusion captured on AHC sensor; fold increase vs VEGF-Grab3 (Samsung Biologics)
PLGF [4] = molecular target: T4, PLGF; assay: as above

| Binder | Fold (KD) (PLGF [1]) [fold] | Fold (kdis) (PLGF [1]) [fold] | Fold (kon) (PLGF [1]) [fold] | Fold (kdis) (VEGF-A [2]) [fold] | Fold (kon) (VEGF-A [2]) [fold] | Fold (KD) (VEGF-A [2]) [fold] | Fold (KD) (VEGF-A [3]) [fold] | Fold (kdis) (VEGF-A [3]) [fold] | Fold (kon) (VEGF-A [3]) [fold] | Fold (KD) (PLGF [4]) [fold] | Fold (kdis) (PLGF [4]) [fold] | Fold (kon) (PLGF [4]) [fold] |
| --- | --- | --- | --- | --- | --- | --- | --- | --- | --- | --- | --- | --- |
| C32 (Fc fusion, Based on VEGF-Grab3; IgG1 Fc) EFGRPFVEMYSEIPEIIHMTEGRELVIPCRVTSPNITVTLKKFPLDTLIPDGKRIIWDSRKGFIISNATYKEIGLLTCEATVNGHLYKTNYLTHRQTNTIIDVQISTPSPVTLLRGHTLVLNCTATTPLNTRVQMTWSYPDEKNKNASVRRRIDQSNSHANIFYSVLTIDKMQNKDKGLYTCRVRSGPSFKSVNTSVHIYDGSSG[gap - human IgG1 Fc with changes] | 3.08 | 3.14 | 0.98 | 1.59 | 1.34 |  |  |  |  |  |  |  |
| C45 (Fc fusion, Based on VEGF-Grab3; IgG1 Fc) EFGRPFVEMYSEIPEIIHMTEGRELVIPCRVTSPNITVTLKKFPLDTLIPDGKRIIWDSRKGFIISNATYKEIGLLTCEATVNGHLYKTNYLTHRQTNTIIDVQISTPSPVTLLRGHTLVLNCTATTPLNTRVQMTWSYPDEKNKNASVRRRIDQSNSHANIFYSVLTIDKMQNKDKGLYTCRVRSGPSFKSVNTSVHIYDEGSSGGSSGEPKS[gap - human IgG1 Fc and a few adjoining residues] | 1.81 | 1.23 | 1.47 | 0.52 | 1.08 | 0.56 |  |  |  |  |  |  |
| C37 (Fc fusion, Linker variant based on VEGF-Grab3; control of the disulfide bond variants) EFGRPFVEMYSEIPEIIHMTEGRELVIPCRVTSPNITVTLKKFPLDTLIPDGKRIIWDSRKGFIISNATYKEIGLLTCEATVNGHLYKTNYLTHRQTNTIIDVQISTPSPVTLLRGHTLVLNCTATTPLNTRVQMTWSYPDEKNKNASVRRRIDQSNSHANIFYSVLTIDKMQNKDKGLYTCRVRSGPSFKSVNTSVHIYDGSKVDKKV[gap - human IgG1 Fc with C220S H224Y (EU numbers)] |  |  |  |  |  |  | 0.22 | 0.16 | 1.36 | 1.35 | 1.33 | 1.01 |
| C36 (Fc fusion, Linker variant based on VEGF-Grab3) EFGRPFVEMYSEIPEIIHMTEGRELVIPCRVTSPNITVTLKKFPLDTLIPDGKRIIWDSRKGFIISNATYKEIGLLTCEATVNGHLYKTNYLTHRQTNTIIDVQISTPSPVTLLRGHTLVLNCTATTPLNTRVQMTWSYPDEKNKNASVRRRIDQSNSHANIFYSVLTIDKMQNKDKGLYTCRVRSGPSFKSVNTSVHIYDGSKVDKKV[gap - human IgG1 Fc with C220S (EU numbers)] |  |  |  |  |  |  | 0.2 | 0.14 | 1.36 | 2.21 | 1.29 | 1.72 |
| C36 (Fc fusion, Based on VEGF-Grab3; IgG1 Fc) EFGRPFVEMYSEIPEIIHMTEGRELVIPCRVTSPNITVTLKKFPLDTLIPDGKRIIWDSRKGFIISNATYKEIGLLTCEATVNGHLYKTNYLTHRQTNTIIDVQISTPSPVTLLRGHTLVLNCTATTPLNTRVQMTWSYPDEKNKNASVRRRIDQSNSHANIFYSVLTIDKMQNKDKGLYTCRVRSGPSFKSVNTSVHIYDGSKVDKKV[gap - human IgG1 Fc with C220S (EU numbers)] | 1.54 | 1.05 | 1.47 | 0.61 | 1.19 | 0.73 |  |  |  |  |  |  |
| C37 (Fc fusion, Based on VEGF-Grab3; IgG1 Fc) EFGRPFVEMYSEIPEIIHMTEGRELVIPCRVTSPNITVTLKKFPLDTLIPDGKRIIWDSRKGFIISNATYKEIGLLTCEATVNGHLYKTNYLTHRQTNTIIDVQISTPSPVTLLRGHTLVLNCTATTPLNTRVQMTWSYPDEKNKNASVRRRIDQSNSHANIFYSVLTIDKMQNKDKGLYTCRVRSGPSFKSVNTSVHIYDGSKVDKKV[gap - human IgG1 Fc with C220S H224Y (EU numbers)] | 0.94 | 1.09 | 0.86 | 0.7 | 1.19 | 0.83 |  |  |  |  |  |  |
| C39 (Fc fusion, Based on VEGF-Grab3; IgG1 Fc) EFGRPFVEMYSEIPEIIHMTEGRELVIPCRVTSPNITVTLKKFPLDTLIPDGKRIIWDSRKGFIISNATYKEIGLLTCEATVNGHLYKTNYLTHRQTNTIIDVQISTPSPVTLLRGHTLVLNCTATTPLNTRVQMTWSYPDEKNKNASVRRRIDQSNSHANIFYSVLTIDKMQNKDKGLYTCRVRSGPSFKSVNTSVHIYDGSKVDKKVEPKSSDTPP[gap - human IgG1 Fc] | 4.64 | 2.17 | 2.14 | 0.59 | 1.3 | 0.77 |  |  |  |  |  |  |
| C34 (Fc fusion, Based on VEGF-Grab3; IgG1 Fc) EFGRPFVEMYSEIPEIIHMTEGRELVIPCRVTSPNITVTLKKFPLDTLIPDGKRIIWDSRKGFIISNATYKEIGLLTCEATVNGHLYKTNYLTHRQTNTIIDVQISTPSPVTLLRGHTLVLNCTATTPLNTRVQMTWSYPDEKNKNASVRRRIDQSNSHANIFYSVLTIDKMQNKDKGLYTCRVRSGPSFKSVNTSVHIYDGSSGEPKSSDKTYTS[gap - human IgG1 Fc with changes] | 2.28 | 3.76 | 0.61 | 0.87 | 1.4 | 1.22 |  |  |  |  |  |  |
| C41 (Fc fusion, Based on VEGF-Grab3; IgG1 Fc) EFGRPFVEMYSEIPEIIHMTEGRELVIPCRVTSPNITVTLKKFPLDTLIPDGKRIIWDSRKGFIISNATYKEIGLLTCEATVNGHLYKTNYLTHRQTNTIIDVQISTPSPVTLLRGHTLVLNCTATTPLNTRVQMTWSYPDEKNKNASVRRRIDQSNSHANIFYSVLTIDKMQNKDKGLYTCRVRSGPSFKSVNTSVHIYDGSGGGGSGGGGSGGGGSAESKYGPP[gap - human IgG1 Fc] | 3.63 | 1.73 | 2.09 | 0.3 | 1.36 | 0.4 |  |  |  |  |  |  |
| C43 (Fc fusion, Based on VEGF-Grab3; IgG1 Fc) EFGRPFVEMYSEIPEIIHMTEGRELVIPCRVTSPNITVTLKKFPLDTLIPDGKRIIWDSRKGFIISNATYKEIGLLTCEATVNGHLYKTNYLTHRQTNTIIDVQISTPSPVTLLRGHTLVLNCTATTPLNTRVQMTWSYPDEKNKNASVRRRIDQSNSHANIFYSVLTIDKMQNKDKGLYTCRVRSGPSFKSVNTSVHIYDGSNTGSGGEEKKKEKEKEEQEERSS[gap - human IgG1 Fc with H224Y (EU numbers)] | 1.86 | 2.44 | 0.76 | 0.3 | 1.42 | 0.43 |  |  |  |  |  |  |
| C44 (Fc fusion, Based on VEGF-Grab3; IgG1 Fc) EFGRPFVEMYSEIPEIIHMTEGRELVIPCRVTSPNITVTLKKFPLDTLIPDGKRIIWDSRKGFIISNATYKEIGLLTCEATVNGHLYKTNYLTHRQTNTIIDVQISTPSPVTLLRGHTLVLNCTATTPLNTRVQMTWSYPDEKNKNASVRRRIDQSNSHANIFYSVLTIDKMQNKDKGLYTCRVRSGPSFKSVNTSVHIYDGSNTGSGGEEKKKEKEKEEQEERSSDTPP[gap - human IgG1 Fc] | 1.73 | 1.16 | 1.49 | 0.23 | 1.5 | 0.35 |  |  |  |  |  |  |
| C52 (Fc fusion, Based on VEGF-Grab3; IgG1 Fc) EFGRPFVEMYSEIPEIIHMTEGRELVIPCRVTSPNITVTLKKFPLDTLIPDGKRIIWDSRKGFIISNATYKEIGLLTCEATVNGHLYKTNYLTHRQTNTIIDVQISTPSPVTLLRGHTLVLNCTATTPLNTRVQMTWSYPDEKNKNASVRRRIDQSNSHANIFYSVLTIDKMQNKDKGLYTCRVRSGPSFKSVNTSVHIYDGGGGSAEPKAGDKAPPG[gap - human IgG1 Fc with C229G (EU numbers)] | 1.67 | 1.17 | 1.42 | 0.2 | 1.19 | 0.24 |  |  |  |  |  |  |
| C55 (Fc fusion, Based on VEGF-Grab3; IgG1 Fc) EFGRPFVEMYSEIPEIIHMTEGRELVIPCRVTSPNITVTLKKFPLDTLIPDGKRIIWDSRKGFIISNATYKEIGLLTCEATVNGHLYKTNYLTHRQTNTIIDVQISTPSPVTLLRGHTLVLNCTATTPLNTRVQMTWSYPDEKNKNASVRRRIDQSNSHANIFYSVLTIDKMQNKDKGLYTCRVRSGPSFKSVNTSVHIYDGGGGSA[gap - human IgG1 Fc with C220S H224Y (EU numbers)] | 1.47 | 1.36 | 1.09 | 0.29 | 1.06 | 0.3 |  |  |  |  |  |  |
| C56 (Fc fusion, Based on VEGF-Grab3; IgG1 Fc) EFGRPFVEMYSEIPEIIHMTEGRELVIPCRVTSPNITVTLKKFPLDTLIPDGKRIIWDSRKGFIISNATYKEIGLLTCEATVNGHLYKTNYLTHRQTNTIIDVQISTPSPVTLLRGHTLVLNCTATTPLNTRVQMTWSYPDEKNKNASVRRRIDQSNSHANIFYSVLTIDKMQNKDKGLYTCRVRSGPSFKSVNTSVHIYDGGGGSGGGGSGGGGSGGGGSA[gap - human IgG1 Fc with C220S H224Y (EU numbers)] | 2.16 | 1.7 | 1.44 | 0.22 | 1.16 | 0.26 |  |  |  |  |  |  |
